# Reference: the supplement of paper PMC11417369
# ± gives the standard deviation of the averaged measurements. The list shows a part of the results.
# Test system: PfAP2-G AP2 domain (GST-tagged)
# Assay: gcPBM binding intensity (ln(normalized median fluorescence intensity)); higher = stronger DNA binding
# Method in brief: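 For binding intensity, the highest Masliner-normalised natural-log median intensity across replicate spots of either probe orientation was taken. Protein bound to the array was stained with Alexa488 anti-GST antibody and scanned at 488 nm. The protein, GST-tagged P. falciparum DNA-binding domains from E. coli at about 25 μg on average, had been applied for 1 h to an Agilent 4 × 180k array of primer-extended double-stranded 36-bp intergenic genomic probes and negative controls.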
row,Sequence,gcPBM binding intensity (ln)
1,TTATTAAAGGAAAAATGTACATATAAATGAATATGT [XGTACX_site23],11.1 ± 0.63
2,AAAAAATGTAAATATAAACAACCAAAGGGGGTATAC [GTGCAC_negctrl_site465],10.5 ± 0.28
3,AAAAAAAAAAAGCACACACACATATGCGTATATATA [CACACA_site954],10.34 ± 0.092
4,AAAATAATAATAAAAAGTACATGTGTATATAATAAA [XGTACX_site754],11.3 ± 0.82
5,TGCATTATTTTATGAAGTACATATGAACAAAAAATT [XGTACX_site2185],11.5 ± 1
6,ATATATTCATTTTTATGTACGTAAATTGTAAATTGG [XGTACX_site8242],11.6 ± 0.92
7,ACCATTTGTAGGTAAACACACATTATTCTTAATATC [CACACA_site5453],9.96 ± 0.13
8,TTTCTCTTATTCCAATCTATAATAAGTATCAATATT [CACACA_negctrl_site179],10.2 ± 0.26
9,AAAGAAGGTAAACACACACACACACCGACAAAAAAA [CACACA_site9255],10.1 ± 0.2
10,AAATTATCCAAAAATTGTACTTAAAACAACATAAAA [XGTACX_site6238],11.1 ± 0.76
11,AATATATATATGATTATATATATATATATATATATA [GTGCAC_negctrl_site290],9.69 ± 0.3
12,AAAATAACACAAATGGGTACATATTATATTAAATAA [XGTACX_site7027],11.3 ± 0.93
13,TTTAATTAAAATATATGTACATATATATATATATAT [XGTACX_site4517],11.4 ± 0.77
14,TATGTTTTTCGGTATGCATGCATATGCTTAATAATA [TGCATGCA_site184],10.2 ± 0.26
15,AATATTAAACAAATGAAAAAAAAATATATATTATAT [CACACA_negctrl_site742],9.79 ± 0.16
16,AACCAAATTTCACCATGTACATATTGATAAATATAT [XGTACX_site1374],11.2 ± 0.86
17,ATATGATTTGGATGTAGTACATATTTTTTTATGTTT [XGTACX_site1929],11.5 ± 0.8
18,AAATGAACAAGTGGCACACACACATTCTAACTAATT [CACACA_site3203],10.31 ± 0.064
19,GCACCAAAAAAAAGACGTACAGTTATATTAAAATAG [XGTACX_site8926],11.7 ± 1
20,AATGAAAAGAAATAATAAATAAATGATGACCAGCTG [GTGCAC_negctrl_site398],10.6 ± 0.38
21,TGATTATCCTTCAGGAGTACATATAATATAATATAT [XGTACX_site1479],11.4 ± 1
22,TTATAAAGAAAAAATTGCTTTAAAAGAAAGATTACA [CACACA_negctrl_site960],9.66 ± 0.11
23,ATATATATATGAATCACACACAAAAAATATAGAGAT [CACACA_site3913],10.2 ± 0.16
24,TATTATATGAATAATTGTACGAAATTTAAAAGACAA [XGTACX_site7558],10.8 ± 0.51
